From patent publication US20260265393A1 come the findings set out here.

For part of its entries the source gives two or more results. The other results are left out here. There may be further records. Values given together appear to be repeats (runs, samples, wells or individuals).

Experiment [1] deals with CD27-mFc (Kangdai) (human) (UniProt P26842). Nature of the experiment: ELISA on coated CD27-mFc. For orientation: ELISA stands for enzyme-linked immunosorbent assay.
In experiment [2] the target is human CD27 (transmembrane protein) on the cell membrane (human) (UniProt P26842). Nature of the experiment: flow cytometry on CHO cells expressing human CD27. A general note: Flow cytometry measures light scatter and fluorescence of single cells or particles in a stream.

For orientation: EC50 means the concentration at which the effect is half-maximal. A high value points to a less potent agent. Take “CD27 monoclonal antibody Varlilumab (1F5)”: the EC50 in experiment [1] was 0.0603 µg/mL and 0.404 nM [columns of one line]; in experiment [2], 0.386 µg/mL and 2.58 nM [columns of one line].
